Laboratory results taken from patent publication US20250002588A1 (DIAGONAL THERAPEUTICS, published 2025).
Where two headings read alike, the source gives them in different places.

Columns and labels:
Test in all cases: cell-based or functional assay
[1] = target: T1, ALK-1/BMPR-2 receptor pair of the PathHunter U2Os dimerization cells (DiscoverX 93-0962C3) (UniProt P37023 22-503; Q13873 27-1038)
[2] = target: T1, ALK-1/BMPR-2 receptor pair of the …; remark: listed apart in the source
[3] = target: T1, ALK-1/BMPR-2 receptor pair of the …; remark: listed apart in the source

T1 sequence (P37023 22-503, chain 1 of 2): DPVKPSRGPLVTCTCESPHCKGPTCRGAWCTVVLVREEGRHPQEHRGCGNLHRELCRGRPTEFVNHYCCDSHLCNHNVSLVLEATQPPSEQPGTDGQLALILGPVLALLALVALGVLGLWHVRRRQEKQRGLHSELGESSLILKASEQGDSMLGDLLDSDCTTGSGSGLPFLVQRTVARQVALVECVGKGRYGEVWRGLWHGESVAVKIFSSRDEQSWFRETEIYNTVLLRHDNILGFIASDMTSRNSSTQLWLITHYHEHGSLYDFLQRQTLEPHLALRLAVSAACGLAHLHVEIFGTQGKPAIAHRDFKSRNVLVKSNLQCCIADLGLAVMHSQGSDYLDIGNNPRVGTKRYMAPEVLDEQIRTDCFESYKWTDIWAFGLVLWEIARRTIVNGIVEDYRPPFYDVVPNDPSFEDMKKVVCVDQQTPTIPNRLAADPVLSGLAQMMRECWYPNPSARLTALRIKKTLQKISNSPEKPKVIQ
T1 sequence (Q13873 27-1038, chain 2 of 2, further chain): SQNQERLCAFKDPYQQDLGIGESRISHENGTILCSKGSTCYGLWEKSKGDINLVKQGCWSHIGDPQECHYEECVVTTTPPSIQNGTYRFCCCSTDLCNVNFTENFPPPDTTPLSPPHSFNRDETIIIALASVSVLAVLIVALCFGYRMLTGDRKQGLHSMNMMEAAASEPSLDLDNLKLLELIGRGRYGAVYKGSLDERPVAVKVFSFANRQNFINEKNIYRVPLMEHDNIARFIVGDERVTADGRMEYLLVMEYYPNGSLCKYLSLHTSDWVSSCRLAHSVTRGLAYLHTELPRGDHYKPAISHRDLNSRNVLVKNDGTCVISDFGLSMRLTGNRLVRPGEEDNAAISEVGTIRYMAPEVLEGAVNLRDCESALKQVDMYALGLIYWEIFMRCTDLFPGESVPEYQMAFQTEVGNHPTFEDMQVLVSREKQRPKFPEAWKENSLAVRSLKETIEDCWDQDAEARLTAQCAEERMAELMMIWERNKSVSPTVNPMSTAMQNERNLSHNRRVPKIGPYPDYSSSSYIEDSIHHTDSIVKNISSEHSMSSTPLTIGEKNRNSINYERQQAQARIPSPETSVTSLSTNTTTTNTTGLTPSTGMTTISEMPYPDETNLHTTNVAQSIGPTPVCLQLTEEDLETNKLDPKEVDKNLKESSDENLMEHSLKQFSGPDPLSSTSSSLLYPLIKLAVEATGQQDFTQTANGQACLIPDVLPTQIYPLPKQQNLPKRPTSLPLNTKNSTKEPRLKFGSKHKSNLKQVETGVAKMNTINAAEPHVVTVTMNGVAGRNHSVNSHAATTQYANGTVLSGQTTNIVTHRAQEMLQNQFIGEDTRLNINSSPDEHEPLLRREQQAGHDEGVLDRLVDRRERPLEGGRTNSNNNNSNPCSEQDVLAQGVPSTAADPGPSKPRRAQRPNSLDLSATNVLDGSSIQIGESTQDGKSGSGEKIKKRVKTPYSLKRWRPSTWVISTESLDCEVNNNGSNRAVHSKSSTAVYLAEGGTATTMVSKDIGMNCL

Binder | % Emax BMP9 [1] | EC50 [1] | EMAX (RLU) [1] | % Emax BMP9 [2] | % Emax BMP9 [3]
DGL292 (bispecific antibody, human IgG1, lambda) heavy: EVQLLESGGGLVQPGGSLRLSCAASGFTFSDYYMTWIRQAPGKGLEWVSSISGGSTYYADSRKGRFTISRDNSENTLYLQMNSLRAEDTAVYYCARDFGVAGWFGQYGMDVWGQGTLVTVSSPAPNLLGGPEVQLLESGGGLVQPGGSLRLSCAASGFTFSSYAMSWVRQAPGKGLEWVANINQDGSEKNYVDSMRGRFTISRDNSKNTLYLQMNSLRAEDTAVYYCAREFDYWGQGTLVTVTSSASTKGPSVFPLAPSSKSTSGGTAALGCLVKDYFPEPVTVSWNSGALTSGVHTFPAVLQSSGLYSLSSVVTVPSSSLGTQTYICNVNHKPSNTKVDKKV[human IgG1 Fc with L234A L235A G237A (EU numbers) omitted here] light: QSVLTQPPSASGTPGQRVTISCTGSSSNIGAGYDVHWYQQLPGTAPKLLIYRSNQRPSGVPDRFSGSKSGTSASLAISGLRSEDEADYYCSSYAGNYNLVFGGGTKLTVLPAPNLLGGPQSVLAQPPSASGTPGQRVTISCSGSSSNIGSNYVYWYQQLPGTAPKLLIYGNNKRPSGVPDRFSGSKSGTSASLAISGLRSEDEADYYCAAWDDSLNGRVFGGGTKLTVLGQPKAAPSVTLFPPSSEELQANKATLVCLISDFYPGAVTVAWKADSSPVKAGVETTTPSKQSNNKYAASSYLSLTPEQWKSHRSYSCQVTHEGSTVEKTVAPTECS | 74% | 0.09 nM | 1.96e+06 RLU | 60% | 57%
DGL811 (bispecific antibody, human IgG1, lambda) heavy: EVQLLESGGGLVQPGGSLRLSCAASGFTFSDYYMTWIRQAPGKGLEWVSSISGGSTYYADSRKGRFTISRDNSENTLYLQMNSLRAEDTAVYYCARDFGVAGWFGQYGMDVWGQGTLVTVSSPLAPEVQLLESGGGLVQPGGSLRLSCAASGFTFSSYAMSWVRQAPGKGLEWVANINQDGSEKNYVDSMRGRFTISRDNSKNTLYLQMNSLRAEDTAVYYCAREFDYWGQGTLVTVTSSASTKGPSVFPLAPSSKSTSGGTAALGCLVKDYFPEPVTVSWNSGALTSGVHTFPAVLQSSGLYSLSSVVTVPSSSLGTQTYICNVNHKPSNTKVDKKV[human IgG1 Fc with L234A L235A G237A (EU numbers) omitted here] light: QSVLTQPPSASGTPGQRVTISCTGSSSNIGAGYDVHWYQQLPGTAPKLLIYRSNQRPSGVPDRFSGSKSGTSASLAISGLRSEDEADYYCSSYAGNYNLVFGGGTKLTVLPAPNLLGGPQSVLAQPPSASGTPGQRVTISCSGSSSNIGSNYVYWYQQLPGTAPKLLIYGNNKRPSGVPDRFSGSKSGTSASLAISGLRSEDEADYYCAAWDDSLNGRVFGGGTKLTVLGQPKAAPSVTLFPPSSEELQANKATLVCLISDFYPGAVTVAWKADSSPVKAGVETTTPSKQSNNKYAASSYLSLTPEQWKSHRSYSCQVTHEGSTVEKTVAPTECS |  |  |  |  | 73%
DGL812 (bispecific antibody, human IgG1, lambda) heavy: EVQLLESGGGLVQPGGSLRLSCAASGFTFSDYYMTWIRQAPGKGLEWVSSISGGSTYYADSRKGRFTISRDNSENTLYLQMNSLRAEDTAVYYCARDFGVAGWFGQYGMDVWGQGTLVTVSSPAPNLLGGPEVQLLESGGGLVQPGGSLRLSCAASGFTFSSYAMSWVRQAPGKGLEWVANINQDGSEKNYVDSMRGRFTISRDNSKNTLYLQMNSLRAEDTAVYYCAREFDYWGQGTLVTVTSSASTKGPSVFPLAPSSKSTSGGTAALGCLVKDYFPEPVTVSWNSGALTSGVHTFPAVLQSSGLYSLSSVVTVPSSSLGTQTYICNVNHKPSNTKVDKKV[human IgG1 Fc with L234A L235A G237A (EU numbers) omitted here] light: QSVLTQPPSASGTPGQRVTISCTGSSSNIGAGYDVHWYQQLPGTAPKLLIYRSNQRPSGVPDRFSGSKSGTSASLAISGLRSEDEADYYCSSYAGNYNLVFGGGTKLTVLPLAPQSVLAQPPSASGTPGQRVTISCSGSSSNIGSNYVYWYQQLPGTAPKLLIYGNNKRPSGVPDRFSGSKSGTSASLAISGLRSEDEADYYCAAWDDSLNGRVFGGGTKLTVLGQPKAAPSVTLFPPSSEELQANKATLVCLISDFYPGAVTVAWKADSSPVKAGVETTTPSKQSNNKYAASSYLSLTPEQWKSHRSYSCQVTHEGSTVEKTVAPTECS |  |  |  |  | 62%
DGL289 (bispecific antibody, human IgG1, lambda) heavy: EVQLLESGGGLVQPGGSLRLSCAASGFTFSIYAMSWVRQAPGKGLEWVSAISGSGGSTYYADSVKGRFTISRDNSKNTLYLQMNSLRAEDTAVYYCARDFDYWGQGTLVTVTSSPAPNLLGGPEVQLLESGGGLVQPGGSLRLSCAASGFTFSNAWMNWVRQAPGKGLEWVSSISSSSSYIYYADSVKGRFTISRDNSKNTLYLQMNSLRAEDTAVYYCARAVAAGGMFWGLDQWGQGTLVTVTSSASTKGPSVFPLAPSSKSTSGGTAALGCLVKDYFPEPVTVSWNSGALTSGVHTFPAVLQSSGLYSLSSVVTVPSSSLGTQTYICNVNHKPSNTKVDKKV[human IgG1 Fc with L234A L235A G237A (EU numbers) omitted here] light: QSVLTQPPSASGTPGQRVTISCSGSSSNIGSNYVYWYQQLPGTAPKLLIYGNINRPSGVPDRFSGSKSGTSASLAISGLRSEDEADYYCAAWDDSLNGRVFGGGTKLTVLPAPNLLGGPQSVLTQPPSASGTPGQRVTISCSGSRSNIGSNSVHWYQQLPGTAPKLLIYGNSNRPSGVPDRFSGSKSGTSASLAISGLRSEDEADYYCQSYDSSLNDHVVFGGGTKLTVLGQPKAAPSVTLFPPSSEELQANKATLVCLISDFYPGAVTVAWKADSSPVKAGVETTTPSKQSNNKYAASSYLSLTPEQWKSHRSYSCQVTHEGSTVEKTVAPTECS | 68% | 2.4 nM | 1.8e+06 RLU |  | 
DGL290 (bispecific antibody, human IgG1, lambda) heavy: EVQLLESGGGLVQPGGSLRLSCAASGFTFSNAWMNWVRQAPGKGLEWVSSISSSSSYIYYADSVKGRFTISRDNSKNTLYLQMNSLRAEDTAVYYCARAVAAGGMFWGLDQWGQGTLVTVTSSPAPNLLGGPEVQLLESGGGLVQPGGSLRLSCAASGFTFSIYAMSWVRQAPGKGLEWVSAISGSGGSTYYADSVKGRFTISRDNSKNTLYLQMNSLRAEDTAVYYCARDFDYWGQGTLVTVTSSASTKGPSVFPLAPSSKSTSGGTAALGCLVKDYFPEPVTVSWNSGALTSGVHTFPAVLQSSGLYSLSSVVTVPSSSLGTQTYICNVNHKPSNTKVDKKV[human IgG1 Fc with L234A L235A G237A (EU numbers) omitted here] light: QSVLTQPPSASGTPGQRVTISCSGSRSNIGSNSVHWYQQLPGTAPKLLIYGNSNRPSGVPDRFSGSKSGTSASLAISGLRSEDEADYYCQSYDSSLNDHVVFGGGTKLTVLPAPNLLGGPQSVLTQPPSASGTPGQRVTISCSGSSSNIGSNYVYWYQQLPGTAPKLLIYGNINRPSGVPDRFSGSKSGTSASLAISGLRSEDEADYYCAAWDDSLNGRVFGGGTKLTVLGQPKAAPSVTLFPPSSEELQANKATLVCLISDFYPGAVTVAWKADSSPVKAGVETTTPSKQSNNKYAASSYLSLTPEQWKSHRSYSCQVTHEGSTVEKTVAPTECS | 69% | 5.3 nM | 1.82e+06 RLU |  | 
DGL291 (bispecific antibody, human IgG1, lambda) heavy: EVQLLESGGGLVQPGGSLRLSCAASGFTFSSYAMSWVRQAPGKGLEWVANINQDGSEKNYVDSMRGRFTISRDNSKNTLYLQMNSLRAEDTAVYYCAREFDYWGQGTLVTVTSSPAPNLLGGPEVQLLESGGGLVQPGGSLRLSCAASGFTFSDYYMTWIRQAPGKGLEWVSSISGGSTYYADSRKGRFTISRDNSENTLYLQMNSLRAEDTAVYYCARDFGVAGWFGQYGMDVWGQGTLVTVSSASTKGPSVFPLAPSSKSTSGGTAALGCLVKDYFPEPVTVSWNSGALTSGVHTFPAVLQSSGLYSLSSVVTVPSSSLGTQTYICNVNHKPSNTKVDKKV[human IgG1 Fc with L234A L235A G237A (EU numbers) omitted here] light: QSVLAQPPSASGTPGQRVTISCSGSSSNIGSNYVYWYQQLPGTAPKLLIYGNNKRPSGVPDRFSGSKSGTSASLAISGLRSEDEADYYCAAWDDSLNGRVFGGGTKLTVLPAPNLLGGPQSVLTQPPSASGTPGQRVTISCTGSSSNIGAGYDVHWYQQLPGTAPKLLIYRSNQRPSGVPDRFSGSKSGTSASLAISGLRSEDEADYYCSSYAGNYNLVFGGGTKLTVLGQPKAAPSVTLFPPSSEELQANKATLVCLISDFYPGAVTVAWKADSSPVKAGVETTTPSKQSNNKYAASSYLSLTPEQWKSHRSYSCQVTHEGSTVEKTVAPTECS | 36% | 0.2 nM | 952000 RLU |  | 
